According to article PMC9911399, “Two distinct binding modes provide the RNA-binding protein RbFox with extraordinary sequence specificity”:
Changes are numbered by the printed parent chain; changes in the protein carry UniProt numbers. The list shows a part of the results.

T1: RBFOX1 RRM RbFoxmut (Fox-RRM*) (Homo sapiens, UniProt Q9NWB1 109-208, R118D;E147R;N151S;E152T)
T1 sequence: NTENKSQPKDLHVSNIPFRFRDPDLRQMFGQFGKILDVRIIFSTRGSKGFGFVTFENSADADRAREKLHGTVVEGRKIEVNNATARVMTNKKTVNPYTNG

B1: UUGCUCC (DNA:RNA)
RNA: GGGAGACCGGAAUUCAGAUUGUCCUUGCUCCUUAAAUCCCGUCGUAGCCACCA
DNA 1: CAATCTGAATTCCGGTCTCCC
DNA 2: TGGTGGCTACGACGGGATT
B2: UCGUAAG (DNA:RNA)
RNA: B1 RNA with U26C, C28U, U29A, C30A, C31G
DNA 1: CAATCTGAATTCCGGTCTCCC
DNA 2: TGGTGGCTACGACGGGATT
B3: UUUUUGU (DNA:RNA)
RNA: B1 RNA with G27U, C28U, C30G, C31U
DNA 1: CAATCTGAATTCCGGTCTCCC
DNA 2: TGGTGGCTACGACGGGATT
B4: CUGACAU (DNA:RNA)
RNA: B1 RNA with U25C, C28A, U29C, C30A, C31U
DNA 1: CAATCTGAATTCCGGTCTCCC
DNA 2: TGGTGGCTACGACGGGATT
B5: AAAUACA (DNA:RNA)
RNA: B1 RNA with U25A, U26A, G27A, C28U, U29A, C31A
DNA 1: CAATCTGAATTCCGGTCTCCC
DNA 2: TGGTGGCTACGACGGGATT
B6: GAUCUGA (DNA:RNA)
RNA: B1 RNA with U25G, U26A, G27U, C30G, C31A
DNA 1: CAATCTGAATTCCGGTCTCCC
DNA 2: TGGTGGCTACGACGGGATT
B7: GUUGGCA (DNA:RNA)
RNA: B1 RNA with U25G, G27U, C28G, U29G, C31A
DNA 1: CAATCTGAATTCCGGTCTCCC
DNA 2: TGGTGGCTACGACGGGATT
B8: AUUACAC (DNA:RNA)
RNA: B1 RNA with U25A, G27U, C28A, U29C, C30A
DNA 1: CAATCTGAATTCCGGTCTCCC
DNA 2: TGGTGGCTACGACGGGATT
B9: CCGUUCC (DNA:RNA)
RNA: B1 RNA with U25C, U26C, C28U
DNA 1: CAATCTGAATTCCGGTCTCCC
DNA 2: TGGTGGCTACGACGGGATT
B10: GAGGGCA (DNA:RNA)
RNA: B1 RNA with U25G, U26A, C28G, U29G, C31A
DNA 1: CAATCTGAATTCCGGTCTCCC
DNA 2: TGGTGGCTACGACGGGATT
B11: AGUUACG (DNA:RNA)
RNA: B1 RNA with U25A, U26G, G27U, C28U, U29A, C31G
DNA 1: CAATCTGAATTCCGGTCTCCC
DNA 2: TGGTGGCTACGACGGGATT
B12: AACGCCC (DNA:RNA)
RNA: B1 RNA with U25A, U26A, G27C, C28G, U29C
DNA 1: CAATCTGAATTCCGGTCTCCC
DNA 2: TGGTGGCTACGACGGGATT
B13: UGUCUCC (DNA:RNA)
RNA: B1 RNA with U26G, G27U
DNA 1: CAATCTGAATTCCGGTCTCCC
DNA 2: TGGTGGCTACGACGGGATT
B14: CAGAUCU (DNA:RNA)
RNA: B1 RNA with U25C, U26A, C28A, C31U
DNA 1: CAATCTGAATTCCGGTCTCCC
DNA 2: TGGTGGCTACGACGGGATT
B15: CGACGCU (DNA:RNA)
RNA: B1 RNA with U25C, U26G, G27A, U29G, C31U
DNA 1: CAATCTGAATTCCGGTCTCCC
DNA 2: TGGTGGCTACGACGGGATT
B16: GGGACAU (DNA:RNA)
RNA: B1 RNA with U25G, U26G, C28A, U29C, C30A, C31U
DNA 1: CAATCTGAATTCCGGTCTCCC
DNA 2: TGGTGGCTACGACGGGATT
B17: UAACCCC (DNA:RNA)
RNA: B1 RNA with U26A, G27A, U29C
DNA 1: CAATCTGAATTCCGGTCTCCC
DNA 2: TGGTGGCTACGACGGGATT
B18: CCAGACG (DNA:RNA)
RNA: B1 RNA with U25C, U26C, G27A, C28G, U29A, C31G
DNA 1: CAATCTGAATTCCGGTCTCCC
DNA 2: TGGTGGCTACGACGGGATT
B19: AGCAAUA (DNA:RNA)
RNA: GGGAGACCGGAAUUCAGAUUGUCCAGCAAUAUUAAAUCCCGUCGUAGCCACCA
DNA 1: CAATCTGAATTCCGGTCTCCC
DNA 2: TGGTGGCTACGACGGGATT
B20: GUGGCAC (DNA:RNA)
RNA: B1 RNA with U25G, C28G, U29C, C30A
DNA 1: CAATCTGAATTCCGGTCTCCC
DNA 2: TGGTGGCTACGACGGGATT
B21: ACCCGAG (DNA:RNA)
RNA: B19 RNA with G26C, A28C, A29G, U30A, A31G
DNA 1: CAATCTGAATTCCGGTCTCCC
DNA 2: TGGTGGCTACGACGGGATT
B22: UGCGGUU (DNA:RNA)
RNA: B19 RNA with A25U, A28G, A29G, A31U
DNA 1: CAATCTGAATTCCGGTCTCCC
DNA 2: TGGTGGCTACGACGGGATT
B23: ACUUAGU (DNA:RNA)
RNA: B19 RNA with G26C, C27U, A28U, U30G, A31U
DNA 1: CAATCTGAATTCCGGTCTCCC
DNA 2: TGGTGGCTACGACGGGATT
B24: UAAAUCA (DNA:RNA)
RNA: B1 RNA with U26A, G27A, C28A, C31A
DNA 1: CAATCTGAATTCCGGTCTCCC
DNA 2: TGGTGGCTACGACGGGATT
B25: CGAGAUC (DNA:RNA)
RNA: B19 RNA with A25C, C27A, A28G, A31C
DNA 1: CAATCTGAATTCCGGTCTCCC
DNA 2: TGGTGGCTACGACGGGATT
B26: ACGUACG (DNA:RNA)
RNA: B19 RNA with G26C, C27G, A28U, U30C, A31G
DNA 1: CAATCTGAATTCCGGTCTCCC
DNA 2: TGGTGGCTACGACGGGATT
B27: AACUCCA (DNA:RNA)
RNA: B19 RNA with G26A, A28U, A29C, U30C
DNA 1: CAATCTGAATTCCGGTCTCCC
DNA 2: TGGTGGCTACGACGGGATT
B28: GCGCAGU (DNA:RNA)
RNA: B1 RNA with U25G, U26C, U29A, C30G, C31U
DNA 1: CAATCTGAATTCCGGTCTCCC
DNA 2: TGGTGGCTACGACGGGATT
B29: CCCCUCC (DNA:RNA)
RNA: B1 RNA with U25C, U26C, G27C
DNA 1: CAATCTGAATTCCGGTCTCCC
DNA 2: TGGTGGCTACGACGGGATT
B30: GGGUUGU (DNA:RNA)
RNA: B1 RNA with U25G, U26G, C28U, C30G, C31U
DNA 1: CAATCTGAATTCCGGTCTCCC
DNA 2: TGGTGGCTACGACGGGATT
B31: ACUAUCC (DNA:RNA)
RNA: B1 RNA with U25A, U26C, G27U, C28A
DNA 1: CAATCTGAATTCCGGTCTCCC
DNA 2: TGGTGGCTACGACGGGATT

What follows are binders tested against T1, RBFOX1 RRM RbFoxmut (Fox-RRM*) (assay: EMSA; HiTS-Eq, 1 nM pool, 10 min; buffer printed only for the single-RNA assays: 10 mM Tris pH 7.5, 150 mM NaCl, 3.4 mM EDTA, 0.001% NP-40, 30 C). Settings: tags: His6 N-terminal (pET28a); label: 5' 32P.
Summary of the method: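 Relative association constants, normalised to the cognate motif, were derived by comparing read counts of each RNA species with those of the control reaction. The RNA sequenced was the free fraction, separated by 8% native PAGE after a 10 min equilibration in 50 µL of 1 nM 5′-radiolabelled RNA (7 randomized nucleotides) with increasing concentrations of purified wild-type or mutant RbFox RRM.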

Row | Binder | binding signal
1 | B1 | 0.0613 KA relative to UGCAUGU
2 | B2 | 0.129 KA relative to UGCAUGU
3 | B3 | 0.12 KA relative to UGCAUGU
4 | B4 | 0.078 KA relative to UGCAUGU
5 | B5 | 0.1 KA relative to UGCAUGU
6 | B6 | 0.0464 KA relative to UGCAUGU
7 | B7 | 0.157 KA relative to UGCAUGU
8 | B8 | 0.0952 KA relative to UGCAUGU
9 | B9 | 0.0525 KA relative to UGCAUGU
10 | B10 | 0.0718 KA relative to UGCAUGU
11 | B11 | 0.12 KA relative to UGCAUGU
12 | B12 | 0.0509 KA relative to UGCAUGU
13 | B13 | 0.153 KA relative to UGCAUGU
14 | B14 | 0.0588 KA relative to UGCAUGU
15 | B15 | 0.0924 KA relative to UGCAUGU
16 | B16 | 0.0656 KA relative to UGCAUGU

Row | Binder | binding signal
17 | B17 | 0.0798 KA relative to UGCAUGU
18 | B18 | 0.0488 KA relative to UGCAUGU
19 | B19 | 0.0997 KA relative to UGCAUGU
20 | B20 | 0.0959 KA relative to UGCAUGU
21 | B21 | 0.0876 KA relative to UGCAUGU
22 | B22 | 0.098 KA relative to UGCAUGU
23 | B23 | 0.142 KA relative to UGCAUGU
24 | B24 | 0.0786 KA relative to UGCAUGU
25 | B25 | 0.0647 KA relative to UGCAUGU
26 | B26 | 0.136 KA relative to UGCAUGU
27 | B27 | 0.11 KA relative to UGCAUGU
28 | B28 | 0.0815 KA relative to UGCAUGU
29 | B29 | 0.0654 KA relative to UGCAUGU
30 | B30 | 0.448 KA relative to UGCAUGU
31 | B31 | 0.0886 KA relative to UGCAUGU
